Here are results for 7 molecules from EP3470429A1 (Numab Innovation AG, dated 2019).

Common to all, as to test: cell-based or functional assay
The target of assay [1] is T1, CD137 on the transgenic NFkB Jurkat reporter cell line (UniProt Q07011 24-255, limits assumed).
Assay [2] has as its target T1, CD137 on the transgenic NFkB Jurkat …. The source holds these as a separate data set.
For assay [3] the target is unchanged. This is another data set of the same source.
For assay [4] the target is unchanged. This is another data set of the same source.
Assay [5] has the same target. This is another data set of the same source.
Assay [6] shares this target. This is another data set of the same source.
Assay [7] has the same target. This is another data set of the same source.

B1: PRO1126 (bispecific antibody)
chain: DFQLTQSPSSLSASVGDRVTITCQASQSINDYLAWYQQKPGKSPKLLIYKASTLASGVPSRFSGSGSGTDFTLTISSLQPEDFATYYCQQGYIITDIDNVFGTGTKVTVLGGGGGSQVQLQESGPGLVKPSETLSLTCKVSGFSFSNSYWICWIRQPPGKGLEWIGCTFVGSSDSTYYANWAKGRVTISVDSSKNQFSLKLSSVTAADTAVYYCARHPSDAVYGYANNLWGQGTLVTVSSGGGGSGGGGSGGGGSGGGGSIQMTQSPSSLSASVGDRVTITCQASQSINNVLAWYQQKPGKAPKLLIYRASTLASGVPSRFSGSGSGTDFTLTISSLQPEDFATYYCQSSYGNYGDFGTGTKVTVLGGGGGSQSQLQESGPGLVKPSETLSLTCKASGFSFSSGYDMCWVRQPPGKGLEWIACVVAGSVDITYYASWAKGRVTISKDSSKNQVSLKLSSVTAADTAVYFCARKDAYSDAFNLWGQGTLVTVSS
In the case of B1, the “EC50 in ng/ml, NFkB-Luciferase reporter, HCC827 cells without IFNg” value (“EC50 in ng/ml … HCC827 cells without IFNg” below) in assay [1] was 6.97 ng/mL. For the same molecule, in assay [2], the “EC50 in ng/ml, NFkB-Luciferase reporter, HCC827 cells stimulated with IFNg” value (shortened to “EC50 in ng/ml … with IFNg”) was found to be 5.48 ng/mL. In addition, the “EC50 in ng/ml, NFkB-Luciferase reporter, CHO-PD-L1 cells” value (“EC50 in ng/ml … CHO-PD-L1 cells” for short) in assay [3] came to 6 ng/mL.

B2: PRO1123 (bispecific antibody)
chain: DIQMTQSPSSLSASVGDRVTITCQASQSINDYLAWYQQKPGKAPKLLIYKASTLASGVPSRFSGSGSGTDFTLTISSLQPEDFATYYCQQGYIITDIDNVFGTGTKVTVLGGGGGSQVQLQESGPGLVKPSETLSLTCKVSGFSFSNSYWICWVRQPPGKGLEWIGCTFVGSSDSTYYANWAKGRVTISVDSSKNQVSLKLSSVTAADTAVYFCARHPSDAVYGYANNLWGQGTLVTVSSGGGGSGGGGSGGGGSGGGGSIQMTQSPSSLSASVGDRVTITCQASQSINNVLAWYQQKPGKPPKLLIYRASTLASGVPSRFSGSGSGTDFTLTISSLQPEDFATYYCQSSYGNYGDFGTGTKVTVLGGGGGSQVQLQESGPGLVKPSETLSLTCKVSGFSFSSGYDMCWIRQPPGKGLEWIGCVVAGSVDITYYASWAKGRVTISVDSSKNQFSLKLSSVTAADTAVYYCARKDAYSDAFNLWGQGTLVTVSS
notes: also called 38-02-A04 sc05 IF scDb-i/33 03 G02 sc01 scDb-o
Regarding B2, the “EC50 in ng/ml … HCC827 cells without IFNg” value in assay [1] was 16.1 ng/mL. In assay [2], the “EC50 in ng/ml … with IFNg” value is 11.9 ng/mL. Also, the “EC50 in ng/ml … CHO-PD-L1 cells” value in assay [3] was found to be 5.75 ng/mL.

B3: PRO1124 (bispecific antibody)
chain: DIQMTQSPSSLSASVGDRVTITCQASQSINDYLAWYQQKPGKAPKLLIYKASTLASGVPSRFSGSGSGTDFTLTISSLQPEDFATYYCQQGYIITDIDNVFGTGTKVTVLGGGGGSQVQLQESGPGLVKPSETLSLTCKASGFSFSNSYWICWVRQPPGKGLEWIGCTFVGSSDSTYYANWAKGRVTISKDSSKNQVSLKLSSVTAADTAVYFCARHPSDAVYGYANNLWGQGTLVTVSSGGGGSGGGGSGGGGSGGGGSLQMTQSPSSLSASVGDRVTITCQASQSINNVLAWYQQKPGKPPKLLIYRASTLASGVPSRFSGSGSGTDFTLTISSLQPEDFATYYCQSSYGNYGDFGTGTKVTVLGGGGGSQVQLQESGPGLVKPSETLSLTCKVSGFSFSSGYDMCWIRQPPGKGLEWIGCVVAGSVDITYYASWAKGRVTISVDSSKNQFSLKLSSVTAADTAVYYCARKDAYSDAFNLWGQGTLVTVSS
notes: also called 38-02-A04 sc06 Full scDb-i/33_03_G02 sc01 scDb-o
For the molecule B3, the “EC50 in ng/ml … HCC827 cells without IFNg” value in assay [1] was 5.62 ng/mL. For the same molecule, the “EC50 in ng/ml … with IFNg” value in assay [2] stood at 4.83 ng/mL. In addition, in assay [3], the “EC50 in ng/ml … CHO-PD-L1 cells” value came out at 3.68 ng/mL.

B4: PRO1058 (other)
chain: DIQMTQSPSSLSASVGDRVTITCQASQSINDYLAWYQQKPGKAPKLLIYKASTLASGVPSRFSGSGSGTDFTLTISSLQPEDFATYYCQQGYIITDIDNVFGTGTKVTVLGGGGGSQVQLQESGPGLVKPSETLSLTCKVSGFSFNNDYDMCWIRQPPGKGLEWIGCIDTGDGSTYYASWAKGRVTISVDSSKNQFSLKLSSVTAADTAVYYCAREAASSSGYGMGYFDLWGQGTLVTVSSGGGGSGGGGSGGGGSGGGGSIQMTQSPSSLSASVGDRVTITCQSSQSVYDNNWLAWYQQKPGKAPKLLIYRASNLASGVPSRFSGSGSGTDFTLTISSLQPEDFATYYCQGTYLSSNWYWAFGTGTKVTVLGGGGGSQVQLQESGPGLVKPSETLSLTCKVSGFSFSSGYDMCWIRQPPGKGLEWIGCVVAGSVDITYYASWAKGRVTISVDSSKNQFSLKLSSVTAADTAVYYCARKDAYSDAFNLWGQGTLVTVSSGGGGSGGGGSVVMTQSPSSLSASVGDRVTITCQASQIISSRSAWYQQKPGQPPKLLIYQASKLASGVPSRFSGSGSGTDFTLTISSLQPEDFATYYCQCTYIDSNFGAFGGGTKLTVLGGGGGSGGGGSGGGGSGGGGSEVQLVESGGGLVQPGGSLRLSCAASGFSFSSSYWICWVRQAPGKGLEWVGCVFTGDGTTYYASWAKGRFTISRDNSKNTVYLQMNSLRAEDTATYFCARPVSVYYYGMDLWGQGTLVTVSS
notes: also called 38_27_C05 sc01 scDb-i/33-03-G02 sc01 scDb-o/mxr HSA (23-13-A01-sc03,sk17sh4)
Turning to B4, the “max. activation (%), NF-kB reporter, CHO-PD-L1, with HSA, 24h” value in assay [4] was determined as 36.2%. The “EC50 in ng/ml, NFkB-Luciferase reporter, PD-L1 expressing CHO cells (6h), + HSA” value in assay [5] was 70.9 ng/mL. Moreover, the “EC50 in ng/ml, NFkB-Luciferase reporter, PD-L1 expressing CHO cells (24h), + HSA” value in assay [6] was found to be 121 ng/mL.

B5: PRO1059 (bispecific antibody, human IgG1, kappa, L234A L235A)
light: DIQMTQSPSSLSASVGDRVTITCQASQSINDYLAWYQQKPGKAPKLLIYKASTLASGVPSRFSGSGSGTDFTLTISSLQPEDFATYYCQQGYIITDIDNVFGTGTKVTVLGTVAAPSVFIFPPSDEQLKSGTASVVCLLNNFYPREAKVQWKVDNALQSGNSQESVTEQDSKDSTYSLSSTLTLSKADYEKHKVYACEVTHQGLSSPVTKSFNRGECGGGGSGGGGSIQMTQSPSSLSASVGDRVTITCQASQSINNVLAWYQQKPGKAPKLLIYRASTLASGVPSRFSGSGSGTDFTLTISSLQPEDFATYYCQSSYGNYGDFGTGTKVTVLGGGGGSGGGGSGGGGSGGGGSQVQLQESGPGLVKPSETLSLTCKVSGFSFSNSYWICWIRQPPGKGLEWIGCTFVGSSDSTYYANWAKGRVTISVDSSKNQFSLKLSSVTAADTAVYYCARHPSDAVYGYANNLWGQGTLVTVSS
heavy: QVQLQESGPGLVKPSETLSLTCKVSGFSFSSGYDMCWIRQPPGKGLEWIGCVVAGSVDITYYASWAKGRVTISVDSSKNQFSLKLSSVTAADTAVYYCARKDAYSDAFNLWGQGTLVTVSSASTKGPSVFPLAPSSKSTSGGTAALGCLVKDYFPEPVTVSWNSGALTSGVHTFPAVLQSSGLYSLSSVVTVPSSSLGTQTYICNVNHKPSNTKVDKRVEPKSCDKTHTCPPCPAPEAAGGPSVFLFPPKPKDTLMISRTPEVTCVVVDVSHEDPEVKFNWYVDGVEVHNAKTKPREEQYNSTYRVVSVLTVLHQDWLNGKEYKCKVSNKALGAPIEKTISKAKGQPREPQVYTLPPSREEMTKNQVSLTCLVKGFYPSDIAVEWESNGQPENNYKTTPPVLDSDGSFFLYSKLTVDKSRWQQGNVFSCSVMHEALHNHYTQKSLSLSPGK
Take B5: the “IC50 (ng/ml), NF-kB reporter, CHO-PD-L1, 24h” value in assay [4] was determined as 289 ng/mL.

B6: PRO1060 (bispecific antibody, human IgG1, kappa, L234A L235A)
light: DIQMTQSPSSLSASVGDRVTITCQASQSINDYLAWYQQKPGKAPKLLIYKASTLASGVPSRFSGSGSGTDFTLTISSLQPEDFATYYCQQGYIITDIDNVFGTGTKVTVLGTVAAPSVFIFPPSDEQLKSGTASVVCLLNNFYPREAKVQWKVDNALQSGNSQESVTEQDSKDSTYSLSSTLTLSKADYEKHKVYACEVTHQGLSSPVTKSFNRGEC
heavy: QVQLQESGPGLVKPSETLSLTCKVSGFSFSSGYDMCWIRQPPGKGLEWIGCVVAGSVDITYYASWAKGRVTISVDSSKNQFSLKLSSVTAADTAVYYCARKDAYSDAFNLWGQGTLVTVSSASTKGPSVFPLAPSSKSTSGGTAALGCLVKDYFPEPVTVSWNSGALTSGVHTFPAVLQSSGLYSLSSVVTVPSSSLGTQTYICNVNHKPSNTKVDKRVEPKSCDKTHTCPPCPAPEAAGGPSVFLFPPKPKDTLMISRTPEVTCVVVDVSHEDPEVKFNWYVDGVEVHNAKTKPREEQYNSTYRVVSVLTVLHQDWLNGKEYKCKVSNKALGAPIEKTISKAKGQPREPQVYTLPPSREEMTKNQVSLTCLVKGFYPSDIAVEWESNGQPENNYKTTPPVLDSDGSFFLYSKLTVDKSRWQQGNVFSCSVMHEALHNHYTQKSLSLSPGKGGGGSGGGGSIQMTQSPSSLSASVGDRVTITCQASQSINNVLAWYQQKPGKAPKLLIYRASTLASGVPSRFSGSGSGTDFTLTISSLQPEDFATYYCQSSYGNYGDFGTGTKVTVLGGGGGSGGGGSGGGGSGGGGSQVQLQESGPGLVKPSETLSLTCKVSGFSFSNSYWICWIRQPPGKGLEWIGCTFVGSSDSTYYANWAKGRVTISVDSSKNQFSLKLSSVTAADTAVYYCARHPSDAVYGYANNLWGQGTLVTVSS
Take B6: in assay [7], the “EC50 in ng/ml, NFkB-Luciferase reporter, HCC827 with IFNy stimulation” value was 17.5 ng/mL and the “EC50 in ng/ml, NFkB-Luciferase reporter, HCC827 without IFNy stimulation” value worked out at 13.6 ng/mL. Further, in assay [5], the “EC50 in ng/ml, NFkB-Luciferase reporter, PD-L1 expressing CHO cells (6h)” value amounted to 56.4 ng/mL. For the same molecule, in assay [6], the “EC50 in ng/ml, NFkB-Luciferase reporter, PD-L1 expressing CHO cells (24h)” value came out at 80.8 ng/mL.

B7: PRO963 (other)
chain: DIQMTQSPSSLSASVGDRVTITCQASQSINDYLAWYQQKPGKAPKLLIYKASTLASGVPSRFSGSGSGTDFTLTISSLQPEDFATYYCQQGYIITDIDNVFGTGTKVTVLGGGGGSQVQLQESGPGLVKPSETLSLTCKVSGFSFSNSYWICWIRQPPGKGLEWIGCTFVGSSDSTYYANWAKGRVTISVDSSKNQFSLKLSSVTAADTAVYYCARHPSDAVYGYANNLWGQGTLVTVSSGGGGSGGGGSGGGGSGGGGSIQMTQSPSSLSASVGDRVTITCQASQSINNVLAWYQQKPGKAPKLLIYRASTLASGVPSRFSGSGSGTDFTLTISSLQPEDFATYYCQSSYGNYGDFGTGTKVTVLGGGGGSQVQLQESGPGLVKPSETLSLTCKVSGFSFSSGYDMCWIRQPPGKGLEWIGCVVAGSVDITYYASWAKGRVTISVDSSKNQFSLKLSSVTAADTAVYYCARKDAYSDAFNLWGQGTLVTVSSGGGGSGGGGSIQMTQSPSSLSASVGDRVTITCQSSESVYSNNQLSWYQQKPGQPPKLLIYDASDLASGVPSRFSGSGSGTDFTLTISSLQPEDFATYYCAGGFSSSSDTAFGGGTKLTVLGGGGGSGGGGSGGGGSGGGGSEVQLVESGGGLVQPGGSLRLSCAASGFSLSSNAMGWVRQAPGKGLEYIGIISVGGFTYYASWAKGRFTISRDNSKNTVYLQMNSLRAEDTATYFCARDRHGGDSSGAFYLWGQGTLVTVSS
notes: also called PRO1051; 38_02_A04 sc01 scDb-i/33-03-G02 sc01 scDb-o/19-01-H04-sc03 scFv
Turning to B7, the “max. activation (%), NF-kB reporter, CHO-PD-L1, with HSA, 24h” value in assay [4] was determined as 369%.
